According to PubChem BioAssay AID686978 (National Center for Advancing Translational Sciences (NCATS), 2013):
Values joined by “and” are separate entries in the source; they are usually repeats but may differ in a detail not shown here. Identical values can stand only once. Screen size: about 420,000 compounds; about 64,000 (15%) were called active. The shares of active, inactive and inconclusive entries below differ from those in the screen. Calls follow the shape of the dose curve; as a rule, active = well fitted inhibition curve with a large enough effect; inconclusive = small, poorly fitted or top-dose-only effect; inactive = flat fitted curve, though single readings scatter. Potencies of inconclusive entries are doubtful fits and often do not repeat.

Test: qHTS for Inhibitors of human tyrosyl-DNA phosphodiesterase 1 (TDP1): qHTS in cells in absence of CPT; also: nearly all actives have a fitted effect of over 55% in size
Conditions: DT40 Tdp1-/- hTDP1 cells, no CPT, ATP luminescence, 48 h; activity change, negative = growth inhibition: at 46.2 µM (top of the series) unless noted
Outline: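 Growth of hTDP1-complemented DT40 Tdp1-knockout cells is measured by ATP luminescence after at least 48 hr compound exposure at 37 °C, with DMSO substituting for the 20 nM CPT used in the parallel screen.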
% is scaled to controls: 0 for no effect and ±100 for the full control effect; potency is read from the fitted curve at half-maximal effect; tags tell the direction and shape of the fitted curve.

| SMILES | Potency | activity change, negative = growth inhibition |
| --- | --- | --- |
| COc1cc(/C=C2\SC(=O)N(CCNC(=O)c3cnc(C)cn3)C2=O)cc(OC)c1OC | active: 18.4 µM | – |
| Cc1cccc(C(=O)NCC(=O)OCC(=O)c2ccc3ccccc3c2)c1 | inactive | – |
| Cc1ccc(NC(=O)C2CC(=O)N(c3ccc4c5c(cccc35)CC4)C2)cc1 (stereo unspecified) | inconclusive: 16.4 µM [inhibitor, single point] | – |
| O=c1cnc2cncnc2n1Cc1ccccc1Cl | active: 1.3 µM | – |
| c1ccc(C[n+]2csc3ccccc32)cc1 | active: 1.03 µM | – |
| COc1ccc(C(=O)NC(=S)NCc2cccnc2)cc1[N+](=O)[O-] | inconclusive: 2.59 µM [inhibitor, full curve] | – |
| COc1ccc(C(=O)N2CCN(Cc3ccc4c(c3)OCO4)CC2)cc1OC | inconclusive: 18.4 µM [inhibitor, single point] | – |
| C=CCN=C1NN=C(c2cc(C)n(CCOC)c2C)CS1 | inactive | – |
| Cc1nn(CCCC(=O)NCCc2ccccc2)c(C)c1[N+](=O)[O-] | inconclusive: 8.2 µM [inhibitor, partial curve, poor fit] | – |
| O=S(=O)(NCCCc1ccccc1)c1ccc(Cl)cc1 | inactive | – |
| O=C(CSc1nc(=O)n2ccccc2n1)N1N=C(c2cccs2)CC1c1ccc(F)cc1 (stereo unspecified) | inconclusive: 29.1 µM [inhibitor, single point] | – |
| O=C1C(N2CCOCC2)=Cc2cccc3cccc1c23 | inconclusive: 18.4 µM [inhibitor, single point] | – |
| CC(C)(C)OC(=O)CN1c2cccc3cccc(c23)S1(=O)=O | inactive | – |
| CC(=O)c1c2c3c(c(Br)ccc3n(C)c1=O)C(=O)c1ccccc1-2 | active: 23.1 µM | – |
| Brc1ccc(-c2nc3ncccn3c2Nc2ccc3c(c2)OCCO3)o1 | inactive | – |
| COc1ccc(-c2[nH]ncc2CNCC(C)(C)N2CCOCC2)cc1F | inactive | – |
| O=C(Cn1cc(C(F)(F)F)ccc1=O)NCc1ccc(F)cc1 | inactive | – |
| Cc1cccc(C(=O)OCC(=O)NCc2ccc(Cl)cc2)c1 | – | inconclusive: -32.6% [inhibitor] |
| CC1=C/C(=N\NC(=S)NCc2ccccc2)CC1 | active: 1.3 µM | – |
| O=C(Nc1ccncc1)C1CCN(S(=O)(=O)c2ccc(Cl)c(C(F)(F)F)c2)CC1 | active: 14.6 µM | – |
| CCOc1ccc(C(c2nnnn2C(C)(C)C)N2CCN(C(=O)c3ccco3)CC2)cc1 (stereo unspecified) | inactive | – |
| COc1cc(NC(=O)CCc2nnc3ccc(N4CCCCC4)nn23)cc(OC)c1OC | inactive | – |
| Oc1ccc(Oc2ccc3c(C(F)(F)F)cc(C(F)(F)F)nc3n2)cc1 | active: 18.4 µM | – |
| N=C1C(c2nc3ccccc3s2)=C(O)CN1NC(=O)c1c[nH]c2ccccc12 | – | inconclusive: -37.1% [inhibitor] |
| Cc1ccccc1Cn1c(CN2CCC(C(=O)NCCN(C)C)CC2)cc2ccccc21 | active: 4.11 µM | – |
| C[C@@H]1CN([C@@H](C)CO)C(=O)CCCn2nncc2CO[C@H]1CN(C)Cc1ccc(Oc2ccccc2)cc1 | active: 16.4 µM | – |

| SMILES | Potency | activity change, negative = growth inhibition |
| --- | --- | --- |
| CCOC(=O)c1nc(-c2ccc(OC)c(OC)c2)no1 | inactive | – |
| Cc1cc(F)ccc1C(O)c1ncc(-c2cccc(F)c2)[nH]1 (stereo unspecified) | inconclusive: 23.1 µM [inhibitor, single point] | – |
| COc1ccc(Cl)cc1NC(=O)CN(C)C(=O)c1ccc2c(c1)CC(c1ccccc1)OC2=O (stereo unspecified) | active: 16.4 µM | – |
| O=C(c1ccc([N+](=O)[O-])c(CS(=O)(=O)c2ccc(Cl)cc2)c1)N1CCCCC1 | inconclusive: 25.9 µM [inhibitor, single point] | – |
| CC[C@]12c3[nH]c4cc(-c5ccco5)ccc4c3CCN1C(=O)[C@@H](CC(=O)NCCCOC)C[C@@H]2C(=O)N1CCN(C(=O)C2CC2)CC1 | inconclusive: 7.31 µM [inhibitor, partial curve] | – |
| CCN(CCCNC(=O)c1ccc(N2CCCC2=O)cc1)c1cccc(C)c1 | inactive | – |
| CCn1c(SC)nc2cc(S(=O)(=O)N3CCCCC3)ccc21 | inactive | – |
| Cc1cccc(N2CCN(C(=O)CCNS(=O)(=O)c3cccs3)CC2C)c1 (stereo unspecified) | active: 20.6 µM | – |
| COc1ccc(NC(=O)CN2C(=O)CSc3ccc(S(=O)(=O)N4CCCC4)cc32)cc1OC | inactive and inconclusive: 23.1 µM [inhibitor, single point] | – |
| COCCNC(=S)N/N=C(\C)c1ccc(O)cc1 | inconclusive: 29.1 µM [inhibitor, single point] | – |
| CC(=O)Nc1cccc(OCCCNS(=O)(=O)c2ccc(C#N)cc2)c1 | – | inconclusive: -30.3% [inhibitor] |
| COC(=O)c1ccc(SCC(=O)NC2CCCCC2)c([N+](=O)[O-])c1 | – | inconclusive: -32.2% [inhibitor] |
| O=C(c1c(F)cccc1F)N(Cc1cccs1)C1CCCC1 | active: 9.2 µM | – |
| O=C(CNc1cccc(S(=O)(=O)N2CCCC2)c1)Nc1ccc(F)c(F)c1 | inconclusive: 18.4 µM [inhibitor, single point] | – |
| COC(=O)c1c(NC(=S)NN2CCOCC2)sc2c1CCCC2 | active: 14.6 µM | – |
| CCn1cc(C(=O)NCCC(C)C)c(=O)c2cc(F)c(N3CCN(C(=O)c4ccco4)CC3)cc21 | active: 18.4 µM | – |
| COc1ccc(C(C(=O)NC(C)(C)C)n2c(=O)c(-c3ccccc3)nc3ccccc32)cc1 (stereo unspecified) | inconclusive: 18.4 µM [inhibitor, single point] | – |
| O=C(Nc1cccc(C(F)(F)F)c1)Nc1ccc(N2CCCC2)c(S(=O)(=O)Nc2ccccc2Cl)c1 | active: 2.91 µM | – |
| COc1ccc(Cl)cc1NC(=O)CSC1=NN2CCCC(=O)N=C2S1 | active: 11.6 µM | – |
| O=C1NCCCc2c1oc1cc(Br)c(O)c(Br)c21 | inconclusive: 20.6 µM [inhibitor, partial curve] | – |
| CCOC(=O)c1ccccc1NC(=O)CSc1nnc(COc2ccccc2)n1CC | inconclusive: 29.1 µM [inhibitor, single point] | – |
| Cc1ccc(C)c(N2CCN(S(=O)(=O)c3cc4c(cc3C)NC(=O)CO4)CC2)c1 | inconclusive: 29.1 µM [inhibitor, single point] | – |
| CCOc1ccc(-n2ccnc(SCC(=O)Nc3ccc(CC)cc3)c2=O)cc1 | inconclusive: 20.6 µM [inhibitor, single point] | – |
| CCN(C(=O)CSc1cc(-c2ccccc2)c2ccc(OC)cc2n1)C1CCS(=O)(=O)C1 (stereo unspecified) | inconclusive: 18.4 µM [inhibitor, single point] | – |
| CCCCCn1nc(C(=O)N(CCOC)c2c(N)n(CCCC)c(=O)[nH]c2=O)c2ccccc2c1=O | inactive | – |
| CCc1c(C)nc2cc(-c3ccc(OC)c(OC)c3)nn2c1N1CCCC1 | active: 23.1 µM | – |

| SMILES | Potency | activity change, negative = growth inhibition |
| --- | --- | --- |
| Cc1ccc2nc(-c3ccc(NC(=O)c4cccnc4)cc3)oc2c1 | inconclusive: 18.4 µM [inhibitor, single point] | – |
| CCCCCNC(=O)C(C1CC1)n1c(=O)c(-c2ccccc2)nc2ccccc21 (stereo unspecified) | inconclusive: 13 µM [inhibitor, partial curve, poor fit] | – |
| CCCCn1c(SCC(=O)N2c3ccccc3Sc3ccccc32)nc2c1c(=O)n(C)c(=O)n2C | active: 25.9 µM | – |
| COc1ccc(CNC(=O)Cn2c(=O)n(CCC(=O)N3CCCCC3)c(=O)c3sccc32)cc1 | inconclusive: 14.6 µM [inhibitor, single point] | – |
| CC(=O)c1cnc2c(-c3cccc(Br)c3)cnn2c1C | inconclusive: 29.1 µM [inhibitor, single point] | – |
| COc1cccc(CN2CCN(Cc3cc(OC)c(OC)c(OC)c3)CC2)c1OC | inconclusive: 10.3 µM [inhibitor, single point] | – |
| O=S(=O)(c1ccc(F)c(F)c1)N1CCCCCCC1 | inconclusive: 14.6 µM [inhibitor, partial curve, poor fit] | – |
| Cc1nn(-c2ccccc2)nc1CNC(=O)c1ncoc1-c1ccccc1 | inconclusive: 13 µM [inhibitor, single point] | – |
| COc1ccc(C2NC(=O)c3ccccc3O2)cc1 (stereo unspecified) | inactive | – |
| O=C(CCC(=O)c1cccs1)OCC(=O)c1ccc(Cl)s1 | inactive | – |
| Cc1cccc2nc3c(nc12)-c1ccccc1C3=O | inconclusive: 32.6 µM [inhibitor, single point] | – |
| CN(C)c1ccc(-c2ccnc3c2CC(C)(C(=O)Nc2ccccc2)O3)cc1 (stereo unspecified) | inactive | – |
| COc1ccc(OC)c(CCNC(=O)c2c(C)oc3ncn(C)c(=O)c23)c1 | inactive | – |
| CC(C)C[C@H](NC(=O)N1CCn2c1nc1ccccc12)C(=O)NCc1ccc2c(c1)OCO2 | inconclusive: 20.6 µM [inhibitor, single point] | – |
| Nc1sccc1C(=O)N1CCN(c2ccccc2)CC1 | active: 16.4 µM | – |
| COc1ccc(NC(=O)CC2(CC(=O)O)CCCC2)cc1 | inactive | – |
| CCOC(=O)Cn1c(=O)n(C2CCCC2)c(=O)c2ccccc21 | inconclusive: 6.51 µM [inhibitor, partial curve] | – |
| COc1ccccc1NC(=O)N1CCC(c2nc3cc(C)c(C)cc3[nH]2)CC1 | active: 1.84 µM | – |
| COc1ccc(C(CNC(=O)Cc2ccc(-c3ccccc3)cc2)N(C)C)cc1 (stereo unspecified) | active: 18.4 µM | – |
| O=C(CN(Cc1ccco1)C(=O)c1ccc(N2CCCC2=O)cc1)Nc1ccccc1C(F)(F)F | inconclusive: 5.8 µM [inhibitor, full curve] | – |
| CCOC(=O)N1CCN(C(=O)c2ccccc2SCC(=O)NCC2CCCCC2)CC1 | inactive | – |
| Cc1cc(Br)ccc1NC(=O)CCSc1ccccc1 | inactive | – |
| CC1C(=O)N2CCCc3cc(S(=O)(=O)N4CCN(c5cccc(Cl)c5)CC4)cc1c32 (stereo unspecified) | inactive | – |
| CC(=O)NC(c1ccccc1)c1nc(-c2cccc(F)c2)cs1 (stereo unspecified) | inconclusive: 29.1 µM [inhibitor, single point] | – |
